Measurements published in PubChem BioAssay AID651820 (National Center for Advancing Translational Sciences (NCATS), 2012).
About 12,000 (3.5%) of roughly 340,000 compounds were called active. The inconclusive results got no clear call from the source; some entries with a clear call stand among them for comparison. Calls come from the whole dose curve; as a rule, active = well fitted inhibition curve with a large enough effect; inconclusive = small, poorly fitted or top-dose-only effect, or another doubt; inactive = no such curve, though single readings can be large or run the other way. No potency is given beside an inconclusive call; the fits are too rough.

Assay: qHTS Assay for Inhibitors of Hepatitis C Virus (HCV)
Conditions: Huh7.5.1 HCVcc-Cre (HCVcc is cell-culture hepatitis C virus) infection, luciferase reporter, 44 h; activity change, negative = inhibition: at 41.8 µM (top of the series) unless noted
Procedure, shortened: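 Reporter virus HCVcc-Cre (~0.5 moi) infects cells exposed to compound; seeding density 1,000 cells/well with 4 h settling beforehand. Luminescence, 15 sec read, taken 44 h post-infection following a 15 min RT substrate incubation.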
% is set by controls: 0 for no effect and ±100 for the full control effect; potency is the fitted concentration of half-maximal effect; tags give direction and shape of the fitted curve.

SMILES	activity change, negative = inhibition	Potency
Cc1ccc(C(=O)Nc2nc(=O)n(C(=O)c3ccccc3Cl)s2)cc1	inactive: 10.7%	
COc1cccc(-c2cc(C(F)(F)F)n3ncc(C(=O)O)c3n2)c1	inactive: 0.19%	
O=C(C[n+]1ccc(CCSc2ccc(F)cc2)cc1)c1ccccc1		inconclusive [inhibitor, single point]
CSc1ccccc1NC(=O)CN(C)C(=O)c1c(C)nn(Cc2ccccc2)c1C	inactive: 1.41%	
CCCCOc1ccc(CN(C)c2ncnc(N)n2)cc1	inactive: -16.9%	
C(#Cc1ccccc1)C[N+]1(CC#Cc2cccc3ccccc23)CCOCC1	inactive: -3.05%	
CCOC(=O)C1=CN(Cc2ccco2)S(=O)(=O)NC1CC (stereo unspecified)		inconclusive [inhibitor, single point]
Cc1ccccc1OCC(O)CN1CCN(c2ccccn2)CC1 (stereo unspecified)	inactive: 1.82%	
Cc1ccc(NC(=O)C2CCN(S(=O)(=O)c3ccc4c(c3)NC(=O)C(C)S4)CC2)c(C)c1 (stereo unspecified)		inconclusive [inhibitor, single point]
Cc1ccc(-n2nc3ccc(N)cc3n2)cc1Cl	inactive: -21.2%	
CC(=O)c1ccc(NC(=O)CCCN2C(=O)/C(=C/C(C)=C/c3ccccc3)SC2=S)cc1		inconclusive [inhibitor, partial curve]
CCc1nc(SCC(=O)Nc2ccccc2)c2c(=O)n(C)c(=O)n(C)c2n1		inconclusive [inhibitor, partial curve]
CC(C)c1nnc(NC(=O)CCC(=O)NC2CC2)s1	inactive: 10.6%	
NS(=O)(=O)c1ccc(NC(=O)CSc2nnc(-c3cnccn3)n2-c2ccccc2)cc1		inconclusive [inhibitor, single point]
COc1ccc(C(=O)NCc2c(C)nn(Cc3ccccc3)c2C)cc1S(=O)(=O)N1CCOCC1		inconclusive [inhibitor, single point]
COC(=O)C1=C(c2cccc(OCc3ccccc3)c2)C[C@@H]2CC[C@H]1N2C(=O)NCc1ccc(OC)c(OC)c1		inconclusive [inhibitor, single point]
CCCCCc1ccc(OCCCC[n+]2cccc(C)c2)c(CCCCC)c1		inconclusive [inhibitor, single point]
CC(NC(=O)CSc1nc2ccccc2n1C)c1ccccc1 (stereo unspecified)	inactive: -14.9%	
Cc1ccc(Cn2cnc3c(cnn3C(C)(C)C)c2=O)cc1		active: 11.2 µM
CN(C)C=Nc1ccc2nc3c(cc2c1)[nH]c1ccccc13		inconclusive [inhibitor, single point]
CCc1ccc2oc(-c3ccc(OC)cc3)cc(=Nc3cccc(C(=O)O)c3)c2c1		inconclusive [inhibitor, single point]
CCOC(=O)C1=C(c2ccccc2)NC(SCC(=O)NC2CCCCC2)=C(C#N)C1c1ccco1 (stereo unspecified)		inconclusive [inhibitor, single point]
NC(=O)CC(NC(=O)c1cccc(Br)c1)c1ccc(N2CCC(Br)CC2)c([N+](=O)[O-])c1 (stereo unspecified)		inconclusive [inhibitor, partial curve]

SMILES	activity change, negative = inhibition	Potency
Cc1cc(NCCCn2ccnc2)n2nc(-c3ccc(F)cc3)cc2n1		inconclusive [inhibitor, partial curve]
CC(C)c1ccc(-c2cc(C(=O)N3CCOCC3)c3cc(Br)ccc3n2)cc1		inconclusive [inhibitor, partial curve]
CC1CC(C)CN(C(=O)COC(=O)COc2ccccc2C#N)C1 (stereo unspecified)	inactive: -2.34%	
Cc1ccc(-c2csc(NC(=O)C3=COCCO3)n2)cc1		inconclusive [inhibitor, single point]
COc1cc2c(cc1OC)CN(C(=O)c1cc(C3CC3)nn1-c1ccccc1)CC2		inconclusive [inhibitor, partial curve]
CCOc1ccc(OCC)c(NC(=O)c2ccc(CNc3c(N4CCOCC4)c(=O)c3=O)cc2)c1		inconclusive [inhibitor, single point]
CC(C)(C)c1nc(NCCN2CCOCC2)c2nnn(Cc3ccccc3Cl)c2n1		inconclusive [inhibitor, partial curve]
CCOC(=O)C1=C(C)N(c2ccc(C)cc2)C(=O)/C1=C\c1ccc(O)c(OC)c1	inactive: -18.8%	
CC(=O)C1=C(O)C(=O)N(c2ccc(Br)cn2)C1c1cccc([N+](=O)[O-])c1 (stereo unspecified)	inactive: 11.8%	
N=C1C(c2ccccc2)=C(O)CN1c1cccc(S(=O)(=O)N2CCOCC2)c1	inactive: 1.26%	
O=C1N=C(N2CCOCC2)S/C1=C\c1cccnc1		inconclusive [inhibitor, partial curve, poor fit]
COc1ccc(/C=N/NC(=O)CNC(=O)/C=C/c2ccco2)cc1OC	inactive: 0.198%	
Cc1ccc(-c2cc(C(F)F)n3ncc(C(=O)N4CCc5ccccc54)c3n2)cc1		inconclusive [inhibitor, full curve]
COc1ccc(CNC(=O)Cn2c(=O)oc3ccccc32)cc1OC	inactive: -3.84%	
COCCNC(=S)Nc1ccc2nc(N3CCCC3)cc(C)c2c1		inconclusive [inhibitor, single point]
C=CCCC(=O)N(C)CCO	inactive: 13.1%	
COc1ccccc1Nc1ncnc2c1oc1ccccc12		inconclusive [inhibitor, single point]
CC(=NNC(=S)N1CC2CCC(CC2)C1)c1cccc(C)n1		inconclusive [inhibitor, full curve]
COc1cccc2sc3ccc(C#CC4(O)CCCCC4)cc3c(=O)c12		inconclusive [inhibitor, single point]
O=C(Nc1ccc(S(=O)(=O)C(F)F)cc1)c1ccc2c(=O)n3c(nc2c1)CCC3		inconclusive [inhibitor, full curve]
Cc1c(C)c2ccc(OCC(=O)c3ccccc3)cc2oc1=O	inactive: -17.1%	
CCOC(=O)c1c(CN2CCN(CC#N)CC2)n(C)c2cc(Br)c(OC)cc12		inconclusive [inhibitor, partial curve]
COc1ccc(O)c(/C=N\NC(=O)CCn2nnc3ccccc32)c1		inconclusive [inhibitor, single point]
